Experimental data published in PMC4336329 (PLoS ONE, 2015).
In all, about 310,000 compounds went through this assay and about 2,200 (0.71%) showed an effect of 50% or more. The effect is printed as a negative number. The list shows a part of the results. Where a SMILES comes first, the peptide text is derived from it. The star is where a group is joined. Bz = O=C(c1ccccc1)*

These molecules were tested against human ether-à-go-go-related gene (hERG) potassium channel (human, UniProt Q12809) (assay: primary screen, population patch clamp on CHO cells stably expressing hERG).
Chain of human ether-à-go-go-related gene (hERG) potassium channel (Q12809 whole entry, looked up): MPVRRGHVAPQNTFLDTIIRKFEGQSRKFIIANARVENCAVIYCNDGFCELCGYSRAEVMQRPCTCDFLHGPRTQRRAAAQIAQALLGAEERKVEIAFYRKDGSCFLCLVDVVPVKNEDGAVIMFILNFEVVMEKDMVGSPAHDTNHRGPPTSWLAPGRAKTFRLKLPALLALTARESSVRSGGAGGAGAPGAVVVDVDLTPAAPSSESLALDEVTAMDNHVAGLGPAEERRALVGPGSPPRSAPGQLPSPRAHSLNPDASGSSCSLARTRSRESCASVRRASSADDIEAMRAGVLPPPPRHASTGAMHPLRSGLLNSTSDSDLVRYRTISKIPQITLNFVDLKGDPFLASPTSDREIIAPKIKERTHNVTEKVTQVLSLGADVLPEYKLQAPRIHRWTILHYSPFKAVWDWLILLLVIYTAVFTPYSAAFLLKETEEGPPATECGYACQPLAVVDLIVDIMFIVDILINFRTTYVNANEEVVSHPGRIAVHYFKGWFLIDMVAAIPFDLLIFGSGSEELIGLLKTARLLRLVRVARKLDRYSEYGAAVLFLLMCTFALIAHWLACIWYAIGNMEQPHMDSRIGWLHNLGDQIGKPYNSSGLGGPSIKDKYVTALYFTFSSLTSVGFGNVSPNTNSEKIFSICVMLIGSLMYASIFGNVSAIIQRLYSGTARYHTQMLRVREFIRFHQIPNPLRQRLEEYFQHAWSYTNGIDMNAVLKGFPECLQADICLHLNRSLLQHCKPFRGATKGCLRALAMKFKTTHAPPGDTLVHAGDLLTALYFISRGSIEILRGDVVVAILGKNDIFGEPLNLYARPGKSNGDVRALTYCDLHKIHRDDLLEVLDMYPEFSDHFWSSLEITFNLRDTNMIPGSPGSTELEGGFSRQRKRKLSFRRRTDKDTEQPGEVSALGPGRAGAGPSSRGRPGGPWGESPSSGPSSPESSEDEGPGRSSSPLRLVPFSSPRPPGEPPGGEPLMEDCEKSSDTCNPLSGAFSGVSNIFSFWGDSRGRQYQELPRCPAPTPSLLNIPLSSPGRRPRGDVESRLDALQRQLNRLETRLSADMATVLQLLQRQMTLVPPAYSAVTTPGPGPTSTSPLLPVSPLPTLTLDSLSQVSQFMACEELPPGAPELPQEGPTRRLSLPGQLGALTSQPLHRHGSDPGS

Compared with Cc1c(C)c(C)c(S(=O)(=O)NCCc2ccccn2)c(C)c1C, Cc1cc(C)c(C)c(S(=O)(=O)N2CCN(c3ncnc4ccccc34)CC2)c1C is higher in “hERG current change (%, negative = inhibition) at 1uM” value: 1.84% for the first, 14.2% for the second.

First: COC(=O)c1sc2ncccc2c1OCc1cccc(Cl)c1
Second: CCn1cc(/C=N/NC(=O)COc2cccc3cccnc23)c2ccccc21
The “hERG current change (%, negative = inhibition) at 1uM” value of the first is higher: 14.8% for the first, 6.66% for the second.

First: O=C(c1ccc2c(=O)n(Cc3ccc(Cl)cc3)c(=S)[nH]c2c1)N1CCCC1
Second: O=C(NCCc1ccc(Cl)cc1)c1cccc(N2CCCC2=O)c1
The “hERG current change (%, negative = inhibition) at 1uM” value of the first is higher: 17% for the first, 3.74% for the second.

Compared with O=C(CCNc1n[nH]c(=O)[nH]c1=O)N/N=C/c1ccc(C(F)(F)F)cc1, COCCOc1ccc(C(F)(F)F)cc1NC(=O)CN1C(=O)NC2(CCc3ccccc32)C1=O (stereo not shown) is lower in “hERG current change (%, negative = inhibition) at 1uM” value: 10.8% for the first, 5.25% for the second.

Compared with CCn1c(SCC(=O)Nc2cccc(C)c2)nc2nc3c(cc2c1=O)COC(C)(C)C3, CCCCCc1nc2sc3c(c2c(=O)n1NC(=O)c1ccc([N+](=O)[O-])cc1)CC(C)(C)OC3 is higher in “hERG current change (%, negative = inhibition) at 1uM” value: 4.55% for the first, 4.62% for the second.

Compared with COc1ccc(C(=O)N/C(=C\c2cn(S(=O)(=O)N(C)C)c3ccccc23)C(=O)N2CCOCC2)cc1, COc1ccc(CCNC(=O)CS(=O)(=O)c2cn(CC(=O)N3CCOCC3)c3ccccc23)cc1OC is higher in “hERG current change (%, negative = inhibition) at 1uM” value: 3.54% for the first, 8.59% for the second.

First: O=c1[nH]n(-c2ccccc2)c(=O)c2ccccc12
Second: Cc1ccc(F)cc1NC(=O)Cc1nn(C)c(=O)c2ccccc12
The “hERG current change (%, negative = inhibition) at 1uM” value of the first is lower: 5.47% for the first, 10.5% for the second.

First: Cc1noc(C)c1C(=O)OCC(=O)NCCC1=CCCCC1
Second: Cc1noc(C)c1C(=O)N1CCCC(Nc2ccc(C(C)C)cc2)C1 (stereo not shown)
The “hERG current change (%, negative = inhibition) at 1uM” value of the first is lower: 15.8% for the first, 26.5% for the second.

First: COc1ccc(CCNC(=O)CS(=O)Cc2nc(-c3ccc(C)cc3)oc2C)cc1OC (stereo not shown)
Second: CCn1ncc(NC(=S)NCCc2ccc(OC)c(OC)c2)c1C(N)=O
The “hERG current change (%, negative = inhibition) at 1uM” value of the first is lower: 1.24% for the first, 16.4% for the second.

First: COc1ccccc1-c1c(C)nn2c(N3CCCCCC3)cc(C)nc12
Second: CCOC(=O)/C(C#N)=C/c1cc2ccccc2nc1N1CCCCC1
The “hERG current change (%, negative = inhibition) at 1uM” value of the first is lower: 6.37% for the first, 8.45% for the second.

Compared with COc1cccc(Cn2c(=O)oc3ccccc32)c1, COc1ccc2oc(CS(=O)c3ccccc3)c(C(=O)O)c2c1 (stereo not shown) is higher in “hERG current change (%, negative = inhibition) at 1uM” value: 13.4% for the first, 13.7% for the second.

Going from Cc1cccc(C)c1NC(=O)C(C)N1CCCC1 (stereo not shown) to Cc1cc2ccccc2n1CCNC(=O)C1CCCCC1, the “hERG current change (%, negative = inhibition) at 1uM” value falls from 5.65% to 3.99%.

Compared with CCCCOc1nc(N)nc(-c2ccccc2)n1, CCCCC(=O)NC(c1ccccc1)c1ccc2cccnc2c1O (stereo not shown) is lower in “hERG current change (%, negative = inhibition) at 1uM” value: 12.3% for the first, 7.88% for the second.

First: O=C(OCc1c(-c2ccccc2)ncc2ccccc12)c1ccc(Cl)cc1Cl
Second: O=C1C(=O)N(c2cccc(Cl)c2)C(c2ccccc2[N+](=O)[O-])/C1=C(\O)c1ccccc1 (stereo not shown)
The “hERG current change (%, negative = inhibition) at 1uM” value of the first is higher: 12% for the first, 7.28% for the second.

Compared with COC(=O)c1cc(C(=O)c2cc(Cl)ccc2O)coc1=N, Nc1ccc(C(=O)O)c(O)c1.Nc1ccc(C(=O)O)c(O)c1 is higher in “hERG current change (%, negative = inhibition) at 1uM” value: 4.3% for the first, 4.97% for the second.

First: CCCCCC(=O)Nc1nc(C)c(-c2csc(Nc3ccccc3OCC)n2)s1
Second: COc1ccc(-c2csc(NC(=S)NC(=O)/C=C/c3ccco3)n2)cc1OC
The “hERG current change (%, negative = inhibition) at 1uM” value of the first is higher: 5.26% for the first, 3.48% for the second.

First: CN(C)CCCOC(=O)C1c2ccccc2Oc2ccccc21.Cl
Second: COc1ccccc1CN(C)C(=O)c1cc(C)nc2ccccc12
The “hERG current change (%, negative = inhibition) at 1uM” value of the first is higher: -1.74% for the first, -47.6% for the second.

First: CC(=O)c1cccc(NS(=O)(=O)c2ccc3c(c2)N(C(C)=O)CCO3)c1
Second: O=C(O)c1[nH]c2ccccc2c1NS(=O)(=O)c1ccc(F)cc1
The “hERG current change (%, negative = inhibition) at 1uM” value of the first is higher: 15.8% for the first, 13.2% for the second.

First: O=C(O)c1ccc(C2SCC(=O)N2Cc2ccco2)cc1 (stereo not shown)
Second: COc1ccc(C2=NCC(=O)N(CC(=O)NCc3ccco3)c3sc4c(c32)CCCC4)cc1
The “hERG current change (%, negative = inhibition) at 1uM” value of the first is higher: 9.2% for the first, -0.515% for the second.

Going from COC(=O)C(NC(=O)C(NC(=O)c1ccccc1)C(C)C)C(C)C (stereo not drawn) (Bz-Val-Val-OMe; configuration not given here) to COC(=O)C(c1ccccc1)C(C(=O)OC)c1ccccc1 (stereo not shown), the “hERG current change (%, negative = inhibition) at 1uM” value rises from 7.11% to 8.3%.

Going from COc1ccc(S(=O)(=O)N2CCCC(C(=O)NC3CC3)C2)cc1OC (stereo not shown) to CCCC(C)NC(=O)C1CCN(S(=O)(=O)c2ccccc2)CC1 (stereo not shown), the “hERG current change (%, negative = inhibition) at 1uM” value falls from 4.63% to 1.63%.

Compared with CCCC(=O)C1=C(O)C(C(=O)OC)C(C)(C)CC1=Nc1ccccc1 (stereo not shown), Cc1cccc(NC(=O)CS(=O)(=O)Cc2ccccc2)n1 is lower in “hERG current change (%, negative = inhibition) at 1uM” value: 3.42% for the first, 1.1% for the second.

First: CCN(CC)c1ccc(C(=O)OCC(=O)N(C(C)C)C(C)C)cc1
Second: CCOc1ccc2oc(C(=O)OCC(=O)NCc3ccc(OC)cc3)c(C)c2c1
The “hERG current change (%, negative = inhibition) at 1uM” value of the first is higher: 3.88% for the first, -0.0082% for the second.

Compared with CCOC(=O)C1=C(CNC(C)(C)CC(C)(C)C)NC(=O)NC1c1cccc([N+](=O)[O-])c1 (stereo not shown), CCOC(=O)C1=C(C)C(c2ccc(OC)cc2OC)NC(=O)N1 (stereo not shown) is higher in “hERG current change (%, negative = inhibition) at 1uM” value: -11.3% for the first, 8.75% for the second.

Compared with COc1cc(C(=O)COC(=O)C2CCN(c3ccc(C(F)(F)F)cn3)CC2)ccc1OC(F)F, COc1ccc2c(c1OC)c(=O)n1c3ccc(OC(C)C(=O)NCCCN4CCOCC4)cc3c3ccnc2c31 (stereo not shown) is higher in “hERG current change (%, negative = inhibition) at 1uM” value: -3.99% for the first, 4.67% for the second.

First: CC(C)(C)Nc1nc(SCc2ccccc2)nc(N2CCOCC2)n1
Second: Cn1c(=O)c2c(nc(N3CCOCC3)n2Cc2c(F)cccc2Cl)n(C)c1=O
The “hERG current change (%, negative = inhibition) at 1uM” value of the first is lower: -4.98% for the first, 7.99% for the second.

Compared with CC1CCN(Cc2ccc(NC(=O)C3CCN(c4nnc(-n5cccc5)s4)CC3)cc2)CC1, O=C(NCCNC1CCN(Cc2ccccc2)CC1)c1cccs1 is lower in “hERG current change (%, negative = inhibition) at 1uM” value: 11.7% for the first, 10.7% for the second.

Going from CCOCC(=O)Nc1cc(C(=O)Nc2cccc(C)c2C)ccc1Cl to O=C(COc1ccccc1C(=O)NCC1CCCO1)Nc1ccc(Cl)cc1Cl (stereo not shown), the “hERG current change (%, negative = inhibition) at 1uM” value falls from 13.3% to 10.7%.

Compared with COc1ccc(C(=O)NCCNC(=O)c2ccc(OC)cc2)cc1, Cc1ccc(C(=O)NCCc2nnc3ccc(SCC(=O)Nc4ccc(C)cc4C)nn23)cc1 is lower in “hERG current change (%, negative = inhibition) at 1uM” value: 15.7% for the first, 1.09% for the second.

Compared with Cc1c(C)c(C)c(CN2CCSCC2)c(C)c1C, Fc1cccc(F)c1CN1CCN(Cc2c(F)cccc2F)CC1 is lower in “hERG current change (%, negative = inhibition) at 1uM” value: 16.3% for the first, 5.79% for the second.

Compared with CC1CCC/C(=N/Nc2nc3ccccc3s2)C1 (stereo not shown), CCn1c(CC(=O)Nc2ccccc2Cl)nnc1SCC(=O)NC1CCCC1 is higher in “hERG current change (%, negative = inhibition) at 1uM” value: 6.62% for the first, 13.7% for the second.

Going from N/C(=N\N=C\c1ccc(O)c(O)c1)c1nonc1N to Nc1nnc(CSCc2ccccc2Cl)s1, the “hERG current change (%, negative = inhibition) at 1uM” value rises from 2.03% to 18.5%.

First: O=C(CNC(=S)N(CCCN1CCOCC1)Cc1cccs1)N1CCOCC1
Second: COc1c(Cl)ccc(Cl)c1C(=O)NC(=O)N1CCOCC1
The “hERG current change (%, negative = inhibition) at 1uM” value of the first is higher: 5.38% for the first, 0.0853% for the second.

Compared with O=C(NNS(=O)(=O)c1ccccc1F)c1ccccc1-n1cccc1, CN(C(=O)c1cc(-c2ccc3c(c2)OCO3)on1)c1ccccc1 is higher in “hERG current change (%, negative = inhibition) at 1uM” value: 5.06% for the first, 11% for the second.

Compared with CC(C)N1C(=O)CCC1C(=O)N1CCC2(CC1)OCCO2 (stereo not shown), COc1cc(/C=C/C(=O)NCC2CCCCC2)cc(OC)c1OC is higher in “hERG current change (%, negative = inhibition) at 1uM” value: -7.6% for the first, 20.5% for the second.

First: Cc1cc(NC(=O)Nc2ccc(Cl)cc2)n(C)n1
Second: O=C(Nc1nnc(Cc2ccc(Cl)cc2)s1)c1ccco1
The “hERG current change (%, negative = inhibition) at 1uM” value of the first is higher: 10.6% for the first, 7.67% for the second.

Compared with CCCCn1c(N)c(N(CCOC)C(=O)COC(=O)COc2ccccc2C#N)c(=O)[nH]c1=O, CCc1cccc(NC(=O)c2snc3c(=O)[nH]cnc23)c1 is higher in “hERG current change (%, negative = inhibition) at 1uM” value: 7.9% for the first, 14.7% for the second.

COc1ccc(/C=N/OCc2ccc(Br)cc2)c(OC)c1 and COc1ccc(/C=C/c2nc(S(=O)(=O)c3ccccc3)c(N(C)C)o2)cc1OC are the same in “hERG current change (%, negative = inhibition) at 1uM” value: 14.1% for the first, 14.1% for the second.

Compared with Cc1ccc(-n2cc(CNC(C)c3cnn(C)c3)c(-c3ccc(F)cc3)n2)cc1 (stereo not shown), Cc1ccc(P(C)(=O)c2ccc(C)cc2)cc1 is higher in “hERG current change (%, negative = inhibition) at 1uM” value: -0.806% for the first, 16.8% for the second.

Going from Cc1ccc(C)c(N(Cc2cc3ccc(C)cc3[nH]c2=O)C(=O)c2ccco2)c1 to O=C(Nc1cccc(N=Cc2cc(Br)cc(Br)c2O)c1)c1ccco1, the “hERG current change (%, negative = inhibition) at 1uM” value rises from 7.61% to 13%.

Compared with CCn1nnnc1-c1ccc(OC)c(S(=O)(=O)Nc2ccc(C)c(C)c2)c1, CCn1cc(C(=O)O)c(=O)c2ccc(C)nc21 is higher in “hERG current change (%, negative = inhibition) at 1uM” value: 15.6% for the first, 16.8% for the second.

First: CCNC(=O)CCSc1nc(C)cc(C)n1
Second: CCCC(=O)Nc1ccc(Br)cn1
The “hERG current change (%, negative = inhibition) at 1uM” value of the first is lower: 1.33% for the first, 15.5% for the second.

First: Cc1cccc([C@@H]2[C@@H]3C(=O)N(Cc4ccccc4)C(=O)[C@@H]3[C@]3(CC(C)C)C(=O)N(c4cccc(Cl)c4)C(=O)N23)c1
Second: Cc1ncc(CSc2nccc(=O)[nH]2)c(CO)c1O
The “hERG current change (%, negative = inhibition) at 1uM” value of the first is higher: 9.24% for the first, 5.69% for the second.

First: Cc1ccnc(NC(=S)NC(=O)c2cncc(Br)c2)c1
Second: C=CCOC(=O)CCCCCCCC
The “hERG current change (%, negative = inhibition) at 1uM” value of the first is lower: 9.65% for the first, 10.5% for the second.
